{
  "source": "paper PMC4336329",
  "about": "(PLoS ONE, 2015)",
  "note": "In all, about 310,000 compounds went through this assay and about 2,200 (0.71%) showed an effect of 50% or more. Effects have a minus sign here. The list shows a part of the results.",
  "data": [
    {"molecular_target": "human ether-à-go-go-related gene (hERG) potassium channel (human, UniProt Q12809)", "sequence (Q12809 whole entry, looked up)": "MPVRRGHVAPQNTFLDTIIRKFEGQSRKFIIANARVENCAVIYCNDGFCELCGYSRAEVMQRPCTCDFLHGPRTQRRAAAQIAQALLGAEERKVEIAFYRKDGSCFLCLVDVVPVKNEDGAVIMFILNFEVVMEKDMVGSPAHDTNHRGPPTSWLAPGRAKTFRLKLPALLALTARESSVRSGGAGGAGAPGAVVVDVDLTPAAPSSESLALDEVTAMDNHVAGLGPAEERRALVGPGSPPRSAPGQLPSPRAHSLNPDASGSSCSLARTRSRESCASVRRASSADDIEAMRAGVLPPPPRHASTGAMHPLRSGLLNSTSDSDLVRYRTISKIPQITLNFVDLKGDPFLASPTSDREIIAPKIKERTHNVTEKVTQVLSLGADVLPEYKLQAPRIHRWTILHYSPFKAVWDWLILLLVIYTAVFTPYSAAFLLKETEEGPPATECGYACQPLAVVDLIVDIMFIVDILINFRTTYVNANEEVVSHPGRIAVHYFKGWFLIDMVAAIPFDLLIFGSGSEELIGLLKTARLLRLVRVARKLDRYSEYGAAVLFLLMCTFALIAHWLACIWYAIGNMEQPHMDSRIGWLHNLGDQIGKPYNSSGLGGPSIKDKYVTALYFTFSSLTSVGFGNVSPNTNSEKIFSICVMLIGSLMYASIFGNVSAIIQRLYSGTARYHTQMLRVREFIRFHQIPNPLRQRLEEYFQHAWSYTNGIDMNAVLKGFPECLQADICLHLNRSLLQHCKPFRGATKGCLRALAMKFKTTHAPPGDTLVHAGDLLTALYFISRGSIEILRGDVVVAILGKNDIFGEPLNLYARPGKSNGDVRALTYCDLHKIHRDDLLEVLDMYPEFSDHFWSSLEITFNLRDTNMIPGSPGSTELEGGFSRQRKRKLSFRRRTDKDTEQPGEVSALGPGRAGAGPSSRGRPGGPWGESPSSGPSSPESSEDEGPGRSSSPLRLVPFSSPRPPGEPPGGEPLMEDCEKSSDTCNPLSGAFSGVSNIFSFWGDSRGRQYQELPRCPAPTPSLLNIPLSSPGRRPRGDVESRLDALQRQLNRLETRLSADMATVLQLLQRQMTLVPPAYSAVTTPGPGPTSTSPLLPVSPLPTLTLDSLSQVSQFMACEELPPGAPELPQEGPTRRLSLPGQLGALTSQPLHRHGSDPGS", "test": "primary screen, population patch clamp on CHO cells stably expressing hERG", "units": {"hERG current change (%, negative = inhibition) at 1uM": "%"}, "values": [
      {"smiles": "Cc1ncc(CO)c(/C=N/NC(=O)c2cc3c(s2)CCCC3)c1O", "hERG current change (%, negative = inhibition) at 1uM": 5.74},
      {"smiles": "CCC(C(=O)NCC1CCCO1)N(C(=O)c1snc(C(N)=O)c1N)c1ccc(Cl)cc1", "note": "(stereo not drawn)", "hERG current change (%, negative = inhibition) at 1uM": 17.7},
      {"smiles": "Cc1cccc(-c2nnc(SCCC(=O)N3CCOCC3)o2)c1", "hERG current change (%, negative = inhibition) at 1uM": 15.7},
      {"smiles": "CN1CCN(CCCNC(=O)c2cn(C3CCCCC3)c(=O)c3c2c2ccccc2n3C)CC1", "hERG current change (%, negative = inhibition) at 1uM": 7.28},
      {"smiles": "CC(=O)Nc1ccc(OC(F)(F)Cl)cc1", "hERG current change (%, negative = inhibition) at 1uM": 7.4},
      {"smiles": "COc1ccc(Nc2cc(Nc3cc(OC)c(OC)c(OC)c3)ncn2)cc1", "hERG current change (%, negative = inhibition) at 1uM": 1.96},
      {"smiles": "CCc1ccc(N=CC23c4ccccc4C(c4ccccc42)C2C(=O)N(c4ccc(OC)cc4)C(=O)C23)cc1", "note": "(stereo not drawn)", "hERG current change (%, negative = inhibition) at 1uM": 9.99},
      {"smiles": "COc1ccc(C(=O)c2nc3ccccc3n2C(C)C)cc1OC", "hERG current change (%, negative = inhibition) at 1uM": 10.1},
      {"smiles": "O=C(CCNC(=O)c1ccco1)Nc1ccc(F)c(Cl)c1", "hERG current change (%, negative = inhibition) at 1uM": 15.7},
      {"smiles": "Cc1nnc(N(C)C(=O)Cc2ccc3c(c2)OCO3)s1", "hERG current change (%, negative = inhibition) at 1uM": 11.3},
      {"smiles": "C/C(=N\\O)c1ccc2c(c1)CC(C)O2", "note": "(stereo not drawn)", "hERG current change (%, negative = inhibition) at 1uM": 13.6},
      {"smiles": "C#CCN(Cc1ccccc1)S(=O)(=O)C=C", "hERG current change (%, negative = inhibition) at 1uM": 4.93},
      {"smiles": "C#CCOc1ccc(/C=C2/C(=O)N(c3cccc(C(=O)O)c3)N=C2C)cc1OC", "hERG current change (%, negative = inhibition) at 1uM": 3.91},
      {"smiles": "COc1ccc(/C=N/NC(=O)c2cc(C(C)(C)C)[nH]n2)cc1COc1ccc(F)cc1F", "hERG current change (%, negative = inhibition) at 1uM": 1.56},
      {"smiles": "COc1ccc(C(=O)NCC(=O)OCC(=O)Nc2ccc(C)c(S(=O)(=O)N(C)C)c2)cc1OC", "hERG current change (%, negative = inhibition) at 1uM": 8.08},
      {"smiles": "CCn1c(SCc2ccc(C(=O)OC)o2)nnc1-c1c[nH]c2ccccc12", "hERG current change (%, negative = inhibition) at 1uM": -1.17},
      {"smiles": "CS(=O)(=O)c1ccc(Cl)c(NC(=O)CSc2nnc(C3CC3)n2C2CC2)c1", "hERG current change (%, negative = inhibition) at 1uM": 8.37},
      {"smiles": "Cc1ccc(C)c(N2CCN(C(=O)Cc3ccc(-n4c(=O)[nH]c5ccsc5c4=O)cc3)CC2)c1", "hERG current change (%, negative = inhibition) at 1uM": -12.7},
      {"smiles": "O=C(NCC1CCCO1)C1CC1(c1ccccc1)c1ccccc1", "note": "(stereo not drawn)", "hERG current change (%, negative = inhibition) at 1uM": 8.22},
      {"smiles": "N/C(Cc1ccc(Cl)c(Cl)c1)=N\\OC(=O)c1ccc(Br)o1", "hERG current change (%, negative = inhibition) at 1uM": 14.8},
      {"smiles": "CN(NC(=O)c1ccc(Cl)cc1Cl)C1=NS(=O)(=O)c2ccccc21", "hERG current change (%, negative = inhibition) at 1uM": 4.9},
      {"smiles": "COc1ccc(C(=O)NCc2cc3ccccc3n2C)cc1", "hERG current change (%, negative = inhibition) at 1uM": 23.4},
      {"smiles": "N/C(=N\\OC(=O)CCCN1C(=O)c2ccccc2C1=O)c1ccc(Cl)cc1", "hERG current change (%, negative = inhibition) at 1uM": -0.806},
      {"smiles": "O=C(COC(=O)c1cc([N+](=O)[O-])ccc1N1CCOCC1)NCc1ccc(Cl)cc1Cl", "hERG current change (%, negative = inhibition) at 1uM": -27.5},
      {"smiles": "CCc1nnc(NS(=O)(=O)c2ccc(NC(=S)NC(=O)/C=C/c3ccc(C(C)C)cc3)cc2)s1", "hERG current change (%, negative = inhibition) at 1uM": 5.2},
      {"smiles": "CC(O)C(=O)N/N=C/c1ccccc1C(=O)O", "note": "(stereo not drawn)", "hERG current change (%, negative = inhibition) at 1uM": 11.8},
      {"smiles": "Cc1noc(C)c1COc1ccccc1C(=O)N(C)CC(=O)Nc1ccc(Cl)c(Cl)c1", "hERG current change (%, negative = inhibition) at 1uM": 2.38},
      {"smiles": "O=C(NCc1cccnc1)Nc1ccc(Cl)c(Cl)c1", "hERG current change (%, negative = inhibition) at 1uM": 11.6},
      {"smiles": "CCN1CCN(CCC(=O)Nc2ccc(Br)c(C)c2)CC1.Cl", "hERG current change (%, negative = inhibition) at 1uM": -3.9},
      {"smiles": "Cc1cc(-c2nnc(CCC(=O)NC(Cc3ccccc3)c3ccccc3)o2)no1", "note": "(stereo not drawn)", "hERG current change (%, negative = inhibition) at 1uM": 12.8},
      {"smiles": "Cc1ccc(NC(=O)Nc2nc3ccccc3s2)cc1NC(=O)Nc1nc2ccccc2s1", "hERG current change (%, negative = inhibition) at 1uM": 7.01},
      {"smiles": "CCCCCN(C(=O)CCC(=O)OCc1cccc(C(F)(F)F)c1)c1c(N)n(CCCC)c(=O)[nH]c1=O", "hERG current change (%, negative = inhibition) at 1uM": 9.81},
      {"smiles": "CN(C)CCNc1nc(-c2ccco2)c2c(c1C#N)CC(C)(C)OC2", "hERG current change (%, negative = inhibition) at 1uM": -13.9},
      {"smiles": "CCOc1ccc(OCCSc2nnnn2-c2ccccc2)cc1", "hERG current change (%, negative = inhibition) at 1uM": 4.36},
      {"smiles": "CC(=O)Nc1ccc(S(=O)(=O)NCCC(=O)OC(C)C(=O)NC2(C#N)CCCCC2)cc1", "note": "(stereo not drawn)", "hERG current change (%, negative = inhibition) at 1uM": 7.84},
      {"smiles": "Cc1cc(NC(=O)CC(C)(C)C)nc2c1c(=O)oc1ccccc12", "hERG current change (%, negative = inhibition) at 1uM": 12},
      {"smiles": "O=C(NCCc1ccccc1)C1CCCN(c2cnccn2)C1", "note": "(stereo not drawn)", "hERG current change (%, negative = inhibition) at 1uM": 16.6},
      {"smiles": "O=C(CNC(=O)c1ccc(Br)o1)Nc1ccccc1", "hERG current change (%, negative = inhibition) at 1uM": 13.6},
      {"smiles": "CCC(C)NS(=O)(=O)c1ccc(OCC(=O)NCc2ccc(OC)cc2)cc1", "note": "(stereo not drawn)", "hERG current change (%, negative = inhibition) at 1uM": 19.8},
      {"smiles": "O=C(Nc1ccc(N2CCOCC2)cc1)NC1CCCCC1", "hERG current change (%, negative = inhibition) at 1uM": 12},
      {"smiles": "CN(C)/C=N/c1cc(=O)[nH]c(=O)n1C", "hERG current change (%, negative = inhibition) at 1uM": 11.1},
      {"smiles": "COc1cccc(OCC(O)CN2CCC(Cc3ccccc3)CC2)c1.Cl", "note": "(stereo not drawn)", "hERG current change (%, negative = inhibition) at 1uM": -55.6},
      {"smiles": "Cc1nc(NC(=S)NC(=O)COc2ccc(Cl)cc2)ccc1Br", "hERG current change (%, negative = inhibition) at 1uM": 7.38},
      {"smiles": "COc1ccc(C(=O)N(NC(=O)Oc2ccccc2)C(C)(C)C)cc1", "hERG current change (%, negative = inhibition) at 1uM": 7.17},
      {"smiles": "CCSc1ncc(C#N)c(=O)[nH]1", "hERG current change (%, negative = inhibition) at 1uM": 19.7},
      {"smiles": "CC1CCc2sc(C(=O)NNC(=O)c3ccncc3)cc2C1", "note": "(stereo not drawn)", "hERG current change (%, negative = inhibition) at 1uM": 14.8},
      {"smiles": "Cc1ncc([N+](=O)[O-])n1CCOC(=O)c1ccccc1", "hERG current change (%, negative = inhibition) at 1uM": 12.7},
      {"smiles": "CCCNC(=O)C12CCC(C)(C(=O)O1)C2(C)C", "note": "(stereo not drawn)", "hERG current change (%, negative = inhibition) at 1uM": 15.3},
      {"smiles": "CCCCOc1ccc(C(=O)N(Cc2ccccc2)C2CCS(=O)(=O)C2)cc1", "note": "(stereo not drawn)", "hERG current change (%, negative = inhibition) at 1uM": 10.7},
      {"smiles": "Cc1ccc(/C=C2\\C(=O)NC(=O)N(Cc3ccccc3Cl)C2=O)o1", "hERG current change (%, negative = inhibition) at 1uM": 11},
      {"smiles": "CC(C)(C)c1ccc(C(=O)N2CCC(C(=O)c3ccccc3)CC2)cc1", "hERG current change (%, negative = inhibition) at 1uM": 11.7},
      {"smiles": "COc1ccccc1CN(C)C(=O)C(NC(=O)Cc1cccc2ccccc12)C(C)C", "note": "(stereo not drawn)", "hERG current change (%, negative = inhibition) at 1uM": 13.3},
      {"smiles": "O=C(COc1ccc(Br)cc1)N1CCc2ccccc21", "hERG current change (%, negative = inhibition) at 1uM": 15.8},
      {"smiles": "Cc1ccc(/C=N/NC(=O)Cc2cccn2C)s1", "hERG current change (%, negative = inhibition) at 1uM": 3.47},
      {"smiles": "Cc1ccc(C(C)C)cc1OCCCCN1CCCC1", "hERG current change (%, negative = inhibition) at 1uM": -6.15},
      {"smiles": "CCOc1ccc(NC(=S)N2CCC(C(N)=O)CC2)cc1", "hERG current change (%, negative = inhibition) at 1uM": 8.76},
      {"smiles": "O=C(NC(=O)c1ccccc1)Nc1cccc(S(=O)(=O)N2CCCCC2)c1", "hERG current change (%, negative = inhibition) at 1uM": -21.2}
    ]}
  ]
}
